Source: PubChem BioAssay AID488969 (Vanderbilt High Throughput Screening Facility, 2010)
The full ranking holds about 110,000 compounds; the median of “z-score” is about -0.1, and the highest 2% start at about 2. This is one part of the list. Activity calls are given as the source filed them.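 The calls were made as follows: active = z-score in the third read window above 3 or below -3; inactive = the rest.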

target: Metabotropic glutamate receptor 8 (Rattus norvegicus) (UniProt P70579); experiment: rat mGluR8 modulators via GIRK flux, primary screen, cell-based, thallium flux, HTS (AID 488969); settings: HEK293 rat mGluR8, GIRK (G protein-gated inwardly rectifying potassium channel) thallium flux, FluoZin2; at 10 µM; stronger effect = higher value; submaximal glutamate (EC20) added with thallium
Sequence of UniProt P70579 (P70579 whole entry, looked up): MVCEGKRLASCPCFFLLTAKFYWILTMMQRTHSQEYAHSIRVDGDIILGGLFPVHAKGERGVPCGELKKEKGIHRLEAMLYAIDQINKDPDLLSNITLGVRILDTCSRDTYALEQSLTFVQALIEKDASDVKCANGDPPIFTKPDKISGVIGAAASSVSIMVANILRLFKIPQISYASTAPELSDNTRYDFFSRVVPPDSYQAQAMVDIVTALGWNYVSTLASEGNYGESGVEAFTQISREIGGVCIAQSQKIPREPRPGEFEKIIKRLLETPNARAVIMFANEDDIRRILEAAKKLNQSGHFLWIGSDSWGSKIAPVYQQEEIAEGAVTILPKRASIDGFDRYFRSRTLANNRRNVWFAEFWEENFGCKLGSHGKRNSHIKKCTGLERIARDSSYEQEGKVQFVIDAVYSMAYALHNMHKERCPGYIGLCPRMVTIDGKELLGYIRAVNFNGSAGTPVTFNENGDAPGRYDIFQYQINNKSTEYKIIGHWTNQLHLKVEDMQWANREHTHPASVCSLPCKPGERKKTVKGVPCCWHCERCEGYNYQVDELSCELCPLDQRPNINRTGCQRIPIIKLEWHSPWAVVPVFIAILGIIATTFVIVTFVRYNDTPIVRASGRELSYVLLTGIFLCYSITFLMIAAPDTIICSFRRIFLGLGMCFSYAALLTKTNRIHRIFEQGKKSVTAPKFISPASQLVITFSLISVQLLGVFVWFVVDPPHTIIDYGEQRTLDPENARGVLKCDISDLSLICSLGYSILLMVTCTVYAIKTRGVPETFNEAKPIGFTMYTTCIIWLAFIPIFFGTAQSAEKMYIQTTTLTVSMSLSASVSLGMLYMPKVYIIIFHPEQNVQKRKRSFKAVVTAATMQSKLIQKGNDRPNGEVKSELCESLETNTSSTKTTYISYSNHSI

SMILES	z-score
CCOC(=O)c1c(NC(=O)c2ccn(CC)n2)sc2c1CCCC2	1.31
CCCOc1ccc(C(=O)Nc2ccccc2[N+](=O)[O-])cc1	0.158
O=C(CSc1cccc2cccc(Cl)c12)OCC(=O)N1CCN(C(=O)c2ccco2)CC1	0.312
CCOCCCNC(=O)C(NC(=O)c1ccc(=O)[nH]c1)c1ccc(Cl)cc1 (centres undefined)	-0.13
Cc1ccc(NC(=O)Cc2ccccc2Cl)cc1S(=O)(=O)N(C)C	active: 12.9
Brc1nnc2n1-c1ccccc1Sc1ccccc1-2	-1.45
COc1ccc(OC)c(C(O)c2nc3ccccc3n2C(C)C)c1 (centres undefined)	-0.357
O=C(c1cccc2ccccc12)N1CCN(CC2CC=CCC2)CC1 (centres undefined)	0.744
CCOC(=O)c1cc(OC(=O)c2ccccc2OC)n(-c2ccccc2)n1	-1.31
COC(=O)/C(C#N)=C/c1c(Oc2cc(C)cc(C)c2)nc2c(C)cccn2c1=O	-0.266
O=C(COc1ccc(-c2ccccc2)cc1)N1CCN(C(=O)c2cccnc2)CC1	0.288
COc1ccc(C(=O)Nc2nc(N3C(=O)c4ccccc4C3=O)n(-c3ccccc3)n2)cc1	-0.321
CCc1ccc(/C=N/NC(=S)NCCc2ccccc2)cc1	0.0899
CCc1c(C)sc(NC(=O)c2cccs2)c1C(N)=O	-0.157
Cc1ccc(-n2c(Cc3ccccc3)nnc2SCC(=O)NNC(=O)Cc2ccccc2)cc1	-0.231
CC(Sc1nnc(-c2cccnc2)n1-c1ccccc1F)C(=O)N1CCCc2ccccc21 (centres undefined)	-0.138
Cc1cccc(C)c1OCC(=O)N/N=C/c1cccn1C	-0.372
O=C(CN1CCc2ccccc2C1)N1CCN(S(=O)(=O)c2ccccc2)CC1	-0.115
Cc1nnc(NC(=O)c2cccc(S(=O)(=O)N3CCOCC3)c2)s1	0.716
COc1cc(/C=N/NC(=Nc2ccc(C)cc2)c2nc3ccccc3s2)ccc1O	-0.0851
N#C/C(=C\c1cccs1)Sc1nc2ccccc2s1	-0.0135
COc1ccc(C2SC[C@@H](C(=O)O)N2C(C)=O)cc1 (some centres undefined)	-0.0378
CSc1ccccc1NC(=O)CN(Cc1ccc(Cl)cc1)S(C)(=O)=O	0.432

SMILES	z-score
CSc1nc(N)nc(SCC(=O)C23CC4CC(CC(C4)C2)C3)c1C#N	0.026
N#Cc1c(NC(=O)CN2C(=O)c3ccccc3C2=O)oc(-c2ccccc2)c1-c1ccccc1	-1.22
Cc1nn(Cc2ccc(Cl)cc2)c(C)c1NC(=O)c1cc(-c2ccco2)on1	-0.503
COc1ccc(Sc2ccc(/C=C3\C(=O)NN(c4ccccc4)C3=O)o2)cc1	-0.119
C/C(=N\NC(=O)C1CC1c1ccccc1)c1ccc(C)s1 (centres undefined)	-0.341
Cc1cccc(C(=O)N2CCCN(C(=O)c3cccc(C)c3)CC2)c1	-0.313
CCn1c(=O)c(=O)[nH]c2cc(C(=O)NCC3CCCCC3)ccc21	-1.01
O=C(Cn1c(=O)oc2cc(S(=O)(=O)N3CCCCCC3)ccc21)NC1CCCCC1	0.236
Cc1ccc(Nc2nc(NCC3CCCO3)nc(N)c2[N+](=O)[O-])cc1 (centres undefined)	-0.463
Cc1[nH]n(-c2ccccc2)c(=O)c1/C=N/c1ccccn1	2.61
Cc1ccccc1Oc1nc2ccccn2c(=O)c1/C=C(\C#N)C(=O)Nc1c(C)n(C)n(-c2ccccc2)c1=O	-0.306
CCn1c(SCC(=O)NCc2ccccc2)nc2c(c1=O)SC(C)C2 (centres undefined)	-0.527
O=c1cc(-c2ccccc2)c2c([nH]1)CCCC2	-0.18
N=c1n(CCN2CCCC2)c2ccccc2n1CC(O)c1ccco1 (centres undefined)	0.673
CCCCc1c(C)c(C#N)c2nc3ccccc3n2c1Nc1c(C)n(C)n(-c2ccccc2)c1=O	-0.643
Cc1cc(Cl)ccc1OCCCC(=O)N1CCOCC1	-0.0277
CCOC(=O)c1c(C)n(C)c2ccc(OCC(N)=O)cc12	-1.72
COc1cccc(CN2CCN(C(=O)c3cccc(F)c3)CC2)c1	-0.0593
CS(=O)(=O)N1CCCC(C(=O)NCc2ccc(F)cc2Cl)C1 (centres undefined)	-0.209
CCOC(=O)N1CCN(CCC(=O)c2ccc(Cl)cc2)CC1	-1.38
CC1C/C(=N\NC(=S)NC(C)C)CC(C)(C)C1 (centres undefined)	0.954
N=c1n(CC(=O)O)c2ccccc2n1Cc1ccccc1Cl	-0.107
O=C(OCC(=O)c1ccc(Cl)s1)c1ccccn1	-0.0208

SMILES	z-score
Cc1ccc(C(=O)N2CCOCC2)cc1Cl	-0.114
Cc1cc(C)c(S(=O)(=O)n2ccc(-c3ccc(OCCN(C)c4ccccn4)cc3)n2)c(C)c1	-0.0145
Cc1nccn1-c1ncnc2sc3c(c12)CCCC3	-0.019
CS(=O)(=O)N(CC(=O)Nc1c(F)cccc1F)c1ccc(C23CC4CC(CC(C4)C2)C3)cc1	-0.145
O=C(NCCN1CCCCCC1)C1CCC(CNS(=O)(=O)c2cccc3cccnc23)CC1 (centres undefined)	-0.387
CCS(=O)(=O)N1CCN(c2ccc(Cl)cc2[N+](=O)[O-])CC1	0.325
Cn1c(=O)n(CC(=O)Nc2cccnc2)c2ccccc21	-0.362
CCC(C(=O)Nc1c[nH]c(=O)[nH]c1=O)c1ccccc1 (centres undefined)	-0.185
CCCC(=O)Nc1ccc(S(=O)(=O)Nc2cc(C)nc(C)n2)cc1	-0.809
CC(=O)c1cc(-c2ccccc2)n(CC(=O)NC2CCCC2)c1C	0.31
CC(C)(C)NC(=O)c1oc2ccccc2c1COc1ccccc1	-0.0414
O=C(Cn1nnc(-c2ccccc2NC(=O)c2ccco2)n1)NC1CCCCC1	0.12
CC(C)(C)CC(=O)OCC(=O)Nc1cc(C(C)(C)C)nn1-c1ccccc1	-0.407
CC(C)OC(=O)c1c(NC(=O)Cn2cnc([N+](=O)[O-])n2)sc2c1CCCC2	0.393
COC(=O)C1C(=O)C2=C(CC1C)NC(C)=C(C(=O)OC(C)C)C2c1ccc(C)o1 (centres undefined)	0.1
O=C(CSc1ncnc2c1oc1ccccc12)NCC1CCCO1 (centres undefined)	-0.215
CCOC(=O)c1cc(-c2ccc(N3CCOCC3)cc2)nn1-c1ccccc1	-0.59
CCOc1ccc(OCCSc2nc3ccccc3[nH]2)cc1	active: 3.67
Cn1cc(/C=N/NC(=O)COc2ccccc2[N+](=O)[O-])c2ccccc21	-0.104
COc1ccc(Cn2nnnc2C(c2cccs2)N2CCOCC2)cc1 (centres undefined)	0.79
Cc1cc[n+](-c2nc3ccccc3nc2[N-]S(=O)(=O)c2ccccc2)cc1	-0.0628
CSCCC(C(=O)NC1=NCCS1)N1C(=O)c2ccccc2C1=O (centres undefined)	-0.114
Cc1c(O)ccc2c3c(c(=O)oc12)CCCC3	-0.491
